# Data as given in the supplement of paper PMC8728848.
# Some of the results follow.
# Key:
# Experiment in all cases: glycan array binding signal (z-score within array); higher = stronger binding
# Settings in all cases: glycan notation: IUPAC condensed, linker removed
# [1] = target: Neu5Ac(a2-3)Gal(b1-3)GalNAc(b1-4)[Neu5Ac(a2-8)Neu5Ac(a2-3)]Gal(b1-4)Glc
# In short: (§1)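 The binding signal is a Z-score computed within each array. Data were drawn from 3228 arrays in the Consortium for Functional Glycomics database, restricted to those with a known protein sequence. Scores were averaged over arrays of the same protein sequence at different concentrations or buffers, and over linkers, and negative values can be taken as non-binding.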
# [2] = target: Neu5Ac(a2-3)Gal(b1-3)GalNAc6S
# In short: as §1
# [3] = target: Neu5Ac(a2-3)Gal(b1-3)GlcNAc
# In short: as §1
# [4] = target: Neu5Ac(a2-3)Gal(b1-3)GlcNAc(b1-2)Man(a1-3)[Neu5Ac(a2-3)Gal(b1-3)GlcNAc(b1-2)Man(a1-6)]Man(b1-4)GlcNAc(b1-4)GlcNAc
# In short: as §1
# [5] = target: Neu5Ac(a2-3)Gal(b1-3)GlcNAc(b1-3)Gal(b1-3)GlcNAc
# In short: as §1
# [6] = target: Neu5Ac(a2-3)Gal(b1-3)GlcNAc(b1-3)Gal(b1-4)GlcNAc
# In short: as §1
# [7] = target: Neu5Ac(a2-3)Gal(b1-3)GlcNAc(b1-3)GalNAc
# In short: as §1
# [8] = target: Neu5Ac(a2-3)Gal(b1-3)GlcNAc6S
# In short: as §1
# [9] = target: Neu5Ac(a2-3)Gal(b1-3)[Fuc(a1-4)]GlcNAc
# In short: as §1
# [10] = target: Neu5Ac(a2-3)Gal(b1-3)[Fuc(a1-4)]GlcNAc(b1-3)Gal(b1-3)[Fuc(a1-4)]GlcNAc
# In short: as §1
# [11] = target: Neu5Ac(a2-3)Gal(b1-3)[Fuc(a1-4)]GlcNAc(b1-3)Gal(b1-4)[Fuc(a1-3)]GlcNAc
# In short: as §1
# [12] = target: Neu5Ac(a2-3)Gal(b1-3)[Neu5Ac(a2-3)Gal(b1-4)]GlcNAc
# In short: as §1
# [13] = target: Neu5Ac(a2-3)Gal(b1-3)[Neu5Ac(a2-6)]GalNAc
# In short: as §1
# Neu5Ac(a2-3)Gal(b1-4)Glc = target: Neu5Ac(a2-3)Gal(b1-4)Glc
# In short: as §1
# [14] = target: Neu5Ac(a2-3)Gal(b1-4)GlcNAc
# In short: as §1
# [15] = target: Neu5Ac(a2-3)Gal(b1-4)GlcNAc(b1-2)Man(a1-3)[GlcNAc(b1-2)Man(b1-4)GlcNAc(b1-2)Man(a1-6)]Man(b1-4)GlcNAc(b1-4)GlcNAc
# In short: as §1
# [16] = target: Neu5Ac(a2-3)Gal(b1-4)GlcNAc(b1-2)Man(a1-3)[Neu5Ac(a2-6)Gal(b1-4)GlcNAc(b1-2)Man(a1-6)]Man(b1-4)GlcNAc(b1-4)GlcNAc
# In short: as §1
# [17] = target: Neu5Ac(a2-3)Gal(b1-4)GlcNAc(b1-3)Gal
# In short: as §1
# [18] = target: Neu5Ac(a2-3)Gal(b1-4)GlcNAc(b1-3)Gal(b1-3)GlcNAc
# In short: as §1
# [19] = target: Neu5Ac(a2-3)Gal(b1-4)GlcNAc(b1-3)Gal(b1-4)GlcNAc
# In short: as §1
# [20] = target: Neu5Ac(a2-3)Gal(b1-4)GlcNAc(b1-3)Gal(b1-4)GlcNAc(b1-3)Gal(b1-4)GlcNAc
# In short: as §1
# [21] = target: Neu5Ac(a2-3)Gal(b1-4)GlcNAc(b1-3)Gal(b1-4)[Fuc(a1-3)]GlcNAc
# In short: as §1
# [22] = target: Neu5Ac(a2-3)Gal(b1-4)GlcNAc(b1-3)GalNAc
# In short: as §1
# [23] = target: Neu5Ac(a2-3)Gal(b1-4)GlcNAc(b1-6)[Gal(b1-3)]GalNAc
# In short: as §1
# [24] = target: Neu5Ac(a2-3)Gal(b1-4)GlcNAc(b1-6)[Neu5Ac(a2-3)Gal(b1-3)]GalNAc
# In short: as §1
# [25] = target: Neu5Ac(a2-3)Gal(b1-4)GlcNAc6S
# In short: as §1
# [26] = target: Neu5Ac(a2-3)Gal(b1-4)[Fuc(a1-3)]GlcNAc
# In short: as §1
# [27] = target: Neu5Ac(a2-3)Gal(b1-4)[Fuc(a1-3)]GlcNAc(b1-3)Gal
# In short: as §1
# [28] = target: Neu5Ac(a2-3)Gal(b1-4)[Fuc(a1-3)]GlcNAc(b1-3)Gal(b1-4)GlcNAc
# In short: as §1
# [29] = target: Neu5Ac(a2-3)Gal(b1-4)[Fuc(a1-3)]GlcNAc(b1-3)Gal(b1-4)[Fuc(a1-3)]GlcNAc(b1-3)Gal(b1-4)[Fuc(a1-3)]GlcNAc
# In short: as §1
binder,measurement,setting,value
"CwpV (Clostridium difficile), B6EFG6 (protein) MKIPKKIAAMLTVTMIAGSSTAGIASAQTVATNLTGQERYETAVKISQDGWKNADEVVIVNDSSIADALSATPFAKAKNAPILLTSKDKLNDKTKAEIQRLKAKKVYLIGGTSVLSTNIEKEIKDLKISFERISGAERYQTSLELAKKLDAISDVKKIAVVNGEKGLADAVSVGAPAAQNNMPVILADSKNGTAVADKFIKDAGITQSYVVGGESSISEAVKNKLPNSTRLGGTDRNDTNAKVIKEFYKKTDLKNAYVTKDGMNKQDQLIDALAVGVLGAKNQSPVVLVGKNLSASQKSLVNSKSFDKITKVGGNGNETAFNEMKSLQEVKTVEAKTISELKSAIDKATANDVINFKPTSEVKEAFTIQTDKAVTVNLNGTYTKTVTINMPNGDVNNYAKVDDVVIDDVKDGTFVNYGKITNLKVNDKNGAKIENNSKGEIGSLTVASGASQVKVTNGGKITTVTNNSKGTTIDNKGTISSVKGDNSPTISGNSPSSNSSGGSSSSGGSSGGSSGGSSSSKVGQIKFSATDKQIKMASGDKTVDPSDNTYILKLTNGTVKDGDVKANVKVAGLPSGLDYTAVGNRSANTITITVSGTTSQSIQNDLNNVSVLVKAGAVSGTGATDSIANTTFEIKKYVAAPAVGQLTFDATDKQIKMASGDKTVDPSDDTYVLTLTKGTAKDGDIKANVEVTGLPSGLDYTAEGDSSANTITIPVSGTASPAVQTDLDNVSVLVKAGAVSETTATDSAANATFEVKKYVAPAVGQLTFDATDKQIKMASGDKTVDPSDDTYVLTLTKGTAKDGDIKANVEVTGLPSGLDYTAEGDSSANTITITVSGTASQAVQTDLDNVSVLVKAGAVSETTATDSAANATFEVKKYVAPAIGQLTFDATDKQIKMASGDKTVDPSDDTYVLTLTKGTAKDGDIKANVEVTGLPSGLDYTAEGDSSANTITITVSGTASQAVQTDLDNVSVLVKAGAVSETTATDSAANATFEVKKHASDPISTIGKISSGLSSLFNILK",glycan array binding signal (z-score),[1],-0.216
same,glycan array binding signal (z-score),[2],-0.321
same,glycan array binding signal (z-score),[3],-0.297
same,glycan array binding signal (z-score),[4],-0.327
same,glycan array binding signal (z-score),[5],-0.328
same,glycan array binding signal (z-score),[6],0.192
same,glycan array binding signal (z-score),[7],-0.324
same,glycan array binding signal (z-score),[8],-0.346
same,glycan array binding signal (z-score),[9],-0.313
same,glycan array binding signal (z-score),[10],0.484
same,glycan array binding signal (z-score),[11],1.09
same,glycan array binding signal (z-score),[12],-0.329
same,glycan array binding signal (z-score),[13],0.035
same,glycan array binding signal (z-score),Neu5Ac(a2-3)Gal(b1-4)Glc,-0.246
same,glycan array binding signal (z-score),[14],-0.167
same,glycan array binding signal (z-score),[15],-0.343
same,glycan array binding signal (z-score),[16],-0.318
same,glycan array binding signal (z-score),[17],-0.276
same,glycan array binding signal (z-score),[18],-0.335
same,glycan array binding signal (z-score),[19],0.09
same,glycan array binding signal (z-score),[20],0.405
same,glycan array binding signal (z-score),[21],-0.29
same,glycan array binding signal (z-score),[22],-0.341
same,glycan array binding signal (z-score),[23],-0.232
same,glycan array binding signal (z-score),[24],-0.316
same,glycan array binding signal (z-score),[25],-0.08
same,glycan array binding signal (z-score),[26],-0.146
same,glycan array binding signal (z-score),[27],-0.35
same,glycan array binding signal (z-score),[28],0.368
same,glycan array binding signal (z-score),[29],-0.172
